Whole data set: some 33,000 sequences, median “E-score (-0.5 to 0.5)” near -0.056, cut for the highest 2% near 0.38. The list shows a part of the results.
What follows are sequences tested against Stb4 (UniProt P50104) (assay: PBM E-score (8-mer binding enrichment) (E-score (-0.5 to 0.5)); higher = stronger / more preferred TF binding; most listed sequences are background and not binding sites). Details: protein concentration: 200 nM; construct: GST-DNA-binding domain.
How it was run: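 Universal all-10-mer Agilent arrays, double-stranded by primer extension on fresh or once-stripped slides, were probed with about 100-200 nM GST-tagged yeast transcription factors made by PURExpress. Fluorescent anti-GST detected bound protein, and masliner normalised the scans. E-scores from the Universal PBM Analysis Suite were given to each ungapped eight-base word pooled with its reverse complement.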

Sequence	PBM E-score
CACGATAA	0.0193
CATGCCGC	0.188
CCCATTCA	-0.0249
ACTTGAAA	-0.0385
ATACAACC	0.0803
ACCGATGA	0.126
CGTTTGGC	-0.00198
ATGGCCGC	0.0472
AGGTTGTG	-0.249
CACGTAGA	-0.214
CGACTAAC	0.0239
GAACCCCA	0.0204
CCTACCAG	-0.302
GCATACTA	-0.0326
CCTAGCTA	-0.304
CCGGGTCA	0.276
CAGAAAGA	-0.176
CACATTTA	-0.314
TGAAATCA	-0.111
GCCCTCTA	-0.171
AGCATAAT	0.043
ACGCTCAG	-0.291
GCAGGGCA	-0.0426
AAAACATG	-0.0372
CAGTTACA	-0.0353

Sequence	PBM E-score
AGCTGATC	-0.067
GCGATTCA	-0.169
CTCTCGAC	-0.293
CGGTACAG	0.198
CCGATCTC	0.336
AGTGAATC	0.0367
AAGGACCT	-0.0744
CGGTTAAG	0.235
CACATCCG	0.425
GAATCCCC	-0.0501
GCAAGAGC	-0.16
CGATGACG	0.0234
GCCAGTCA	-0.115
ACTCAGTC	-0.154
ATCATCGA	-0.0603
ATAGAACG	0.0415
TACGCAAA	-0.275
AGTCGAGA	-0.137
TAGTGGCA	-0.183
AAAGGCAG	-0.161
TCAACGGA	0.191
CAACGATC	0.0435
AGATATCG	-0.134
AGGGACCG	0.00132
CGACGGGA	0.248

Sequence	PBM E-score
AGTAGTAA	-0.122
CTCTTGAA	-0.146
CACTGTGA	-0.018
AATTAGAC	-0.215
ATTGGTCA	-0.131
AGGAGCGA	-0.18
ATCCGGCA	0.38
ATGACTAG	-0.254
GGCAGTCA	-0.00955
CAAGGCTG	-0.364
CGTGCGTC	0.0687
CATTCACC	0.232
GGTAACTA	0.226
CGGCCGGC	0.26
AACGTACA	-0.208
CCTAAAAG	-0.401
CAGGAAAG	-0.2
ACGCGTGA	-0.117
ACTGTGGC	-0.288
AGCTGTCA	-0.177
AACGGCTC	0.191
CTCCACTC	-0.187
CGCCTTAG	-0.078
AACGCCCA	-0.239
CGTTCGGA	0.465

Sequence	PBM E-score
CACAGGGA	-0.0891
CAGAAACC	-0.0498
ACTCCAGG	-0.0314
GCTAGTAA	0.00537
AGTGTATA	-0.136
CAATCTAA	-0.142
GAGTTCGC	0.0169
AGCGAGCT	0.089
CGCGTGAG	-0.102
AGGTTCAC	0.0161
AAACTACT	-0.201
GACCGGTA	-0.0223
CGTTGATC	-0.209
CCTAGCCC	-0.125
AAAGATGT	-0.0871
GAGGAGCC	-0.0919
CACAGGCA	-0.361
AACGGAGA	-0.0019
ATATCGCG	0.0831
CAGTCTGC	-0.0293
AGGGACAC	-0.165
GGGGCTTA	0.0285
ACTTCACG	-0.0527
AGCGACGC	-0.0403
AAACACCG	0.147

Sequence	PBM E-score
ACGATAGC	-0.0501
ACTTTAGA	-0.0971
ACGCATTC	-0.00843
CACAGATA	-0.33
AATTCCGC	0.246
AAAAGCAT	0.0515
GTGCGGAA	0.289
GATTCAAC	0.079
ATGACCAC	-0.083
GGACCATA	-0.0331
AGCTCTAT	-0.276
AGGTAAAC	0.111
GAATCCAC	-0.134
CATATCCG	0.403
CGTGCAAG	-0.105
CAACGTGC	-0.0658
ATATAGCG	0.0331
AGCACCAT	-0.153
CTCCGTCC	0.15
GGATCACC	0.0128
CTTAATTC	0.128
GACAGCGA	-0.116
GGAATCCC	0.0619
ACCTATTG	-0.026
ATCACCCA	-0.147

Sequence	PBM E-score
GGTTATTA	0.152
GTACGACA	-0.074
AGCACCCG	0.345
GCGGCTCC	0.0298
CGCTTAGC	0.107
ACGAATAT	-0.152
CCGTGGCA	0.00718
ATAACCGC	0.0841
ATCAGGCG	-0.186
AACCCTTG	0.0122
AATGCACA	-0.0909
AGCTAATA	-0.229
CATCGGAA	0.435
GTGGAAAC	-0.0201
CATAAACA	0.0308
ACAGGTCT	-0.143
CTAGGTTA	0.00764
GAGTACAC	-0.0464
CGTTTAGC	-0.00974
AAATTGAG	-0.247
ATTAGCGG	0.12
CTAGACTA	-0.243
CTAGGGGC	-0.105
CTTAAACA	0.036
GCCAGTAC	-0.124

Sequence	PBM E-score
GACTGGAC	-0.149
ATCGAGGG	-0.0551
ACTACTGG	-0.184
CGCAACCC	-0.024
CTGTCAGC	0.0123
CGAATGCC	0.0855
CCTCATCG	0.111
GAGGTAGA	-0.11
CTTTAGTC	-0.173
ATGCCGCG	0.128
CCACGTGC	-0.231
GACTGGCC	0.183
GCATCAAA	-0.182
AAGACTAC	-0.0869
CCCACTAC	0.0298
ATAGACTA	-0.321
ATCCAAGC	-0.241
CATCTACA	-0.0969
AAGCAAGT	-0.09
CCGTAAGC	0.0573
ACAAATCC	0.0442
AACACGGG	0.179
